Laboratory results: publication PMC4336329 (PLoS ONE, 2015)
Hit rate of the full screen: of about 310,000 compounds, about 2,200 (0.71%) showed an effect of 50% or more. Effects have a minus sign here. The list shows a part of the results.

The compounds below were run against human ether-à-go-go-related gene (hERG) potassium channel (human, UniProt Q12809) (assay: primary screen, population patch clamp on CHO cells stably expressing hERG).
human ether-à-go-go-related gene (hERG) potassium channel, sequence (Q12809 whole entry, looked up): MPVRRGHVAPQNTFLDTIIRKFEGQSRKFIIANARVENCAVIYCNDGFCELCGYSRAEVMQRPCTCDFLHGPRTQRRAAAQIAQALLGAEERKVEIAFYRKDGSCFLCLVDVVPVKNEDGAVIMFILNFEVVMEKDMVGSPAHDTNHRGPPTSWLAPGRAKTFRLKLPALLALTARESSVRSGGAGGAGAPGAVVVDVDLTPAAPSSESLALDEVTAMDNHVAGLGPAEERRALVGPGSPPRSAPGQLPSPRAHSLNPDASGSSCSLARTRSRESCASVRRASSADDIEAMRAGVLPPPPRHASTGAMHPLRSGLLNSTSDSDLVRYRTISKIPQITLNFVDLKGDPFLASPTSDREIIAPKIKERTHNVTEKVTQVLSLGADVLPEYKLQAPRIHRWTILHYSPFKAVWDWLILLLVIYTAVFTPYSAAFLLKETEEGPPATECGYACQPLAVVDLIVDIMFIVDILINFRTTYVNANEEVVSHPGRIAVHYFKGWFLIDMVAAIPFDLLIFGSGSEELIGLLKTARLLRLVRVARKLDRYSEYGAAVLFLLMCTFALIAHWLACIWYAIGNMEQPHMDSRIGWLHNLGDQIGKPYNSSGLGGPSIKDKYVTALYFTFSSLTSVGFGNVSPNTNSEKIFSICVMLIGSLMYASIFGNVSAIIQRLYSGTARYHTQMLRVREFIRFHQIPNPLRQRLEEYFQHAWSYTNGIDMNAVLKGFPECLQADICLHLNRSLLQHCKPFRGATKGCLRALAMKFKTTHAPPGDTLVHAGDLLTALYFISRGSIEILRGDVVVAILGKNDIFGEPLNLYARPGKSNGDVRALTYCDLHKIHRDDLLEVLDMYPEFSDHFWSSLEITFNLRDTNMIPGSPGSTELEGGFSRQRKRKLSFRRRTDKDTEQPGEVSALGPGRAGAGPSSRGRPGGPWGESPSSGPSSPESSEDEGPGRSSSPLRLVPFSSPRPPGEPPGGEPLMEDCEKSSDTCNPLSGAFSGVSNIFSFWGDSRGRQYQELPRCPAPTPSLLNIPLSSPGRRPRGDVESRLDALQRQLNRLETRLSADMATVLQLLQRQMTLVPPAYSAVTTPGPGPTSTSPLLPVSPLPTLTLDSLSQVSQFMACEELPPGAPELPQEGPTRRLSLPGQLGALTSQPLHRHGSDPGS

SMILES	hERG current change (%, negative = inhibition) at 1uM [%]
CC(NC(=O)COc1cccnc1[N+](=O)[O-])c1ccc(F)cc1 (centres unmarked)	9.27
Cc1c(C(=O)N2CCN(Cc3ccccc3)CC2)sc2ncnc(N3CCOCC3)c12	-2.83
COCCNC(=O)c1c(N)n(-c2cccc(C)c2)c2nc3ccccc3nc12	1.61
O=C(Nc1cccc(F)c1)N1CCC(n2c(=O)[nH]c3ccccc32)CC1	2.25
CCOc1ccc(NC(=O)CCc2ccc(C)o2)cc1	14.6
CCOc1ccc(S(=O)(=O)N(CC)CC)cc1NS(=O)(=O)c1ccc(F)c(F)c1F	11.8
COc1ccc(Oc2ncccc2[N+](=O)[O-])cc1	11.5
COc1ccccc1CNC(=O)C1CCN(S(=O)(=O)N2CC(C)CC(C)C2)CC1 (centres unmarked)	9.65
COC(=O)c1sccc1NC(=O)C1CC=CCC1C(=O)O (centres unmarked)	18.5
Cc1cc(OCCN2CC2)c2ccccc2n1	2.39
COCCn1c(SCC(=O)c2[nH]c(C)c(C(C)=O)c2C)nc2ccccc21	9.22
COc1ccc(N2C(=O)C3CCCN3C2c2cccc(Br)c2)cc1 (centres unmarked)	5.51
O=C(COC(=O)c1ccc(Br)o1)Nc1ncc(Cl)cc1Cl	4.79
Cc1nc2ccc(NC(=O)N3CCSCC3)cc2s1	18.5
Cc1c(C(=O)N2CCN(c3ccccn3)CC2)sc2ncnc(N3CCN(c4ccccc4)CC3)c12	-14.5
COc1ccc(Cl)cc1C(=O)NC1=NCCS1	11.3
Cc1ccc(-c2ccc(/C=N\NC(=O)C3C(=O)NCC3c3ccccc3)o2)cc1Cl (centres unmarked)	-11.6
CCOC(=O)c1cnc(C(F)(F)F)nc1Oc1ccccc1	11.1
CCn1nnc2sc3c(c2c1=O)CCC(C)C3 (centres unmarked)	7.15
CC1CCN(CCC(=O)NN)CC1	13.7
Cc1ccc(CCNC(=O)C2CC(=O)N(C3CCCCC3)C2)cc1 (centres unmarked)	7.43
Cc1snc(SCc2cccc(Cl)c2)c1C#N	11.6
CN(C)c1cccc(C(=O)NNC(=S)NC2CC3CCC2C3)c1 (centres unmarked)	4.23

SMILES	hERG current change (%, negative = inhibition) at 1uM [%]
O=C(Nc1ccccc1C(F)(F)F)c1cccnc1	16.8
COc1ccccc1NC(=O)CSCC(N)=O	9.15
COc1ccc(NC(=O)c2cc(-c3ccccn3)nc3c(C)cc(C)cc23)c(C)c1	11.4
O=C(CN1CCCCC1)NCCNc1ccc(C(F)(F)F)cc1[N+](=O)[O-]	-10.8
CN(C)S(=O)(=O)c1ccc(NC(=O)C2COc3ccccc3O2)cc1 (centres unmarked)	0.576
Cc1ccc(C(=O)C2CN(C)CC2C(=O)c2ccc(C)cc2)cc1 (centres unmarked)	-12.3
O=C(CNC(=S)N(Cc1ccccc1F)C1CCCCC1)NCC1CCCO1 (centres unmarked)	8.49
Cc1nc2ccccc2c(=O)n1-c1ccc(C(=O)O)cc1	5.02
CCN1CCC(CNCc2cn(-c3ccc(OC)cc3)nc2-c2ccccc2Cl)C1 (centres unmarked)	7.14
COc1cccc(-c2nn(CCC#N)cc2C(=O)Nc2ccccc2Cl)c1	16.1
COc1ccc(Cn2c(=O)[nH]c3cc(C(=O)NCCc4ccc(S(N)(=O)=O)cc4)ccc3c2=O)cc1	13.3
O=C(NCc1ccc(F)cc1)c1ccc(N2CCc3ccccc32)c([N+](=O)[O-])c1	-0.536
O=C(Nc1nnc(C2CC2)s1)c1cc(S(=O)(=O)N2CCCCC2)ccc1N1CCOCC1	7.73
O=C(CSc1ccc(-c2ccccc2)nn1)c1cccs1	8.52
O=C(NNC(=S)NC1CCCCC1)c1ccc(Cl)s1	27.7
O=C(CSc1nc(C2CC2)nc2ccccc12)Nc1ccc2c(c1)OCCO2	8.8
COCCN(Cc1cc2cc3c(cc2nc1Cl)OCO3)C(=O)c1ccc(C)cc1	-13.2
COc1ccc(N(C(=O)c2cnsn2)C(C(=O)NC2CCCCC2)c2ccncc2)cc1 (centres unmarked)	7.11
Cc1cccc(N2C(=O)C(CC(=O)Nc3cccc(F)c3)N(CCc3ccncc3)C2=O)c1 (centres unmarked)	1.37
COc1ccccc1OCC(O)CO (centres unmarked)	12.5
COCCN1CN(S(=O)(=O)c2ccc(Cl)cc2)c2nc3ccccc3nc21	-2.61
CC(C)(C)c1ccc(CN2N=Nc3ccccc3S2(=O)=O)cc1	4.53
Cc1ccc(Cn2c(CN3CC(C)OC(C)C3)nc3c2c(=O)n(C)c(=O)n3C)cc1 (centres unmarked)	4.43

SMILES	hERG current change (%, negative = inhibition) at 1uM [%]
CC1Cc2ccccc2N1C(=O)COC(=O)C1=COCCO1 (centres unmarked)	8.54
CS(=O)(=O)N(CCCC(=O)N1CCCCCC1)c1cccc(Cl)c1	-1.2
Cc1cccc(Cc2nnc(NC(=O)c3cccc(S(=O)(=O)N4CCOCC4)c3)s2)c1	10.4
Cc1cc(-c2ccccc2)nc2oc3c(c12)NC(=O)CN(c1ccccc1)C3=O	3.57
O=C(/C=C/c1ccccc1)NC(N1CCOCC1)C(Cl)(Cl)Cl (centres unmarked)	4.49
CCOC(=O)C1CCN(C(=O)c2cccc(S(=O)(=O)N(CC)c3ccccc3)c2)CC1	-0.916
c1ccc2[nH]c(CSc3ncnc4c3oc3ccccc34)nc2c1	-0.791
CNS(=O)(=O)c1cccc(C(=O)OCC(=O)NCCCc2ccccc2)c1	8.09
COc1cc(NC(=O)C(=O)NNC(=O)C2CCCCC2)c(OC)cc1Cl	-2.32
Oc1ccc2ccccc2c1N=Nc1ccccc1F	6.68
COc1ccc(CCNc2ccc(S(=O)(=O)N3CCN(C)CC3)cc2[N+](=O)[O-])cc1	8.15
CCOC(=O)N1CCN(C(=O)c2c[nH]c3ccc(S(=O)(=O)N(C)c4ccc(F)cc4)cc3c2=O)CC1	14.9
COc1cccc(NC(=O)COC(=O)CCn2c(C)csc2=O)c1	9.14
CCCCn1ccc(=O)c2c(C(F)(F)F)nccc21	5.52
COc1cccc(C2=NOC(C(=O)N3CCOCC3)C2)c1 (centres unmarked)	10.7
N#Cc1c(NC(NC(=O)c2ccco2)C(=O)c2ccccc2)sc2c1CCCC2 (centres unmarked)	10.9
CCOC(=O)C1=C(C)NC(C)=C(C(=O)OCC)C1C(=O)OCC(=O)N(C)C	16.7
COCc1cc(C)nc(SCC(=O)NCc2ccco2)c1C#N	-4.02
COc1ccccc1NC(=O)Cc1noc(CSc2nnc(C)n2C)n1	4.89
O=C(CCc1nc(-c2ccccc2Cl)no1)NCC1CCCO1 (centres unmarked)	11.7
Cc1cccc(N2CC(C(=O)Nc3ccccc3N3CCCC3)CC2=O)c1C (centres unmarked)	-4.76
COCCCNC(=O)c1c[nH]c2ccc(S(=O)(=O)N3CCc4ccccc43)cc2c1=O	12.8
Cc1ccc(C2CC(c3ccc(NS(C)(=O)=O)cc3)=NN2C(=O)c2ccco2)cc1 (centres unmarked)	-21.1

SMILES	hERG current change (%, negative = inhibition) at 1uM [%]
COc1ccc(NC(=O)CN(C)S(=O)(=O)c2ccc(Br)s2)cc1OC	13.6
N/C(=N/OC(=O)c1ccccc1Cl)c1ncc([N+](=O)[O-])s1	18.4
CCOC(=O)C(NC(=O)c1cccc(Cl)c1)(Nc1nnc(C)s1)C(F)(F)F (centres unmarked)	7.76
C=C(C)COc1ccc(-c2ncnc(C(F)(F)F)c2-c2ccc(OC)cc2)c(O)c1	15.1
C=CCn1c(-c2csc(-c3ccc(OC)c(OC)c3)n2)n[nH]c1=S	6.02
Cn1c(CNC(=O)c2ccccc2F)nnc1SCC(=O)c1ccccc1	3.2
Cc1ccc(C(=O)N/C(=C\c2cn(S(=O)(=O)N(C)C)c3ccccc23)C(=O)N2CCCC2)cc1	16
CC(=O)N1CCN(c2ccc(NCc3ccccc3)cc2)CC1	14.3
Cc1ccc(CS(=O)Cc2ccc(C(=O)NC3CCCC(C)C3C)o2)cc1 (centres unmarked)	24.1
COc1ccccc1/C=C/C(=O)NCC(=O)N1CCC(N(C)C2CCCC2)CC1	-8.9
Cn1nccc1C(=O)N1CCN(c2cccc(C(F)(F)F)c2)CC1	4.91
CC(CC(=O)NCCc1ccc(Cl)cc1)S(=O)(=O)c1ccc2c(c1)NC(=O)CO2 (centres unmarked)	-9.21
CCNc1nnc(CCn2nc(C)c(Br)c2C)s1	8.64
Cc1nn(CC(C)C)c(Cl)c1C(=O)N(C)CC(=O)Nc1c(Cl)cccc1Cl	15.3
COc1ccc(C2=NN(c3nc(C(=O)O)cs3)C(O)(C(F)(F)F)C2)c(OC)c1 (centres unmarked)	16.1
CC(C)(C)c1cc(S(=O)(=O)CCc2ccccn2)cc(C(C)(C)C)c1F	16.2
Cc1ccc(OCC(=O)Nc2ccccc2C(=O)NC2CC2)cc1C	-2.3
O=C(c1cccc(F)c1)N1CCN(Cc2ccco2)CC1	11.2
CC1C=CCC2C(=O)N(c3cc(Cl)ccc3O)C(=O)C12 (centres unmarked)	10
COc1cc(CNc2ccc(N3CCN(C(C)=O)CC3)cc2)ccc1OCc1ccc(F)cc1	1.27
